# Assay results taken from patent US9833497B2, “Human originated EGF domain proteins and use of the same” (CHENGDU SOURCEBIO LIMITED-LIABILITY COMPANY, priority 2013, dated 2017).
# Tests used:
# Assay type in all cases: cell-based
# [1] = tested on: Proteus vulgaris; test: MIC against Gram-negative bacteria: Proteus vulgaris; settings: 5×10^5 CFU/mL; for MIC P. vulgaris: two-fold serial dilution; for MIC against P. vulgaris: Proteus vulgaris
# Method: (§1) 1. Gram-negative bacteria, such as E. coli BL21, Pseudomonas aeruginosa, Klebsiella pneumonia, Enterobacter cloacae, Aeromonas hydrophila, Citrobacter diversus, Moraxella catarrhalis, Proteus mirabilis, Proteus vulgaris, Serratia marcescens, etc were streaked on solid LB medium and cultured respectively. Then, typical clones were picked, inoculated into common liquid LB medium respectively, and cultured at 37° C. with shaking at 185 rpm until the McFarland specific turbidity was 0.5. The bacterial culture of each of Gram-negative bacteria was centrifuged at 4000×g for 3 min, the supernatant was discarded, and the thalli were resuspended with fresh LB medium.
# (§2) 2. The above-mentioned bacterial suspensions were diluted and inoculated into 96-well plates with the final concentration of the bacterial suspension being 5×10^5 CFU/mL per well.
# (§3) 3. Each of the purified human-originated EGF domain proteins (PRT1 to PRT1498 in Table 1) was added to each of the above wells and subjected to two-fold serial dilution in concentration. Three parallel wells were set up for each concentration in the gradient.
# (§4) 4. The above-mentioned 96-well plates were placed and cultured at 37° C. in shaking incubator shaking at 175 rpm. […] The minimal inhibitory concentration MIC is defined as the lowest concentration of the recombinant protein at which there is no growth of the bacteria.
# [2] = tested on: Moraxella catarrhalis; test: MIC against Gram-negative bacteria: Moraxella catarrhalis; settings: 5×10^5 CFU/mL; for MIC M. catarrhalis: two-fold serial dilution; for MIC against M. catarrhalis: Moraxella catarrhalis
# Method: as §1, §2, §3, §4
# [3] = tested on: Enterobacter cloacae; test: MIC against Gram-negative bacteria: Enterobacter cloacae; settings: 5×10^5 CFU/mL; for MIC E. cloacae: two-fold serial dilution; for MIC against E. cloacae: Enterobacter cloacae
# Method: as §1, §2, §3, §4
# [4] = tested on: Pseudomonas aeruginosa; test: MIC against Gram-negative bacteria: Pseudomonas aeruginosa; settings: 5×10^5 CFU/mL; for MIC P. aeruginosa: two-fold serial dilution; for MIC against P. aeruginosa: Pseudomonas aeruginosa
# Method: as §1, §2, §3, §4
# [5] = tested on: Klebsiella pneumonia; test: MIC against Gram-negative bacteria: Klebsiella pneumonia; settings: 5×10^5 CFU/mL; for MIC K. pneumonia: two-fold serial dilution; for MIC against K. pneumonia: Klebsiella pneumonia
# Method: as §1, §2, §3, §4
# [6] = tested on: Serratia marcescens; test: MIC against Gram-negative bacteria: Serratia marcescens; settings: 5×10^5 CFU/mL; for MIC S. marcescens: two-fold serial dilution; for MIC against S. marcescens: Serratia marcescens
# Method: as §1, §2, §3, §4
# [7] = tested on: E. coli DH5α; test: Antibacterial activity: MIC and growth curve against E. coli DH5α in 96-well plate; settings: minimal inhibitory concentration against E. coli DH5α, 5×10^5 CFU/mL, 37° C., judged after 8 h
# Method: 1. E. coli DH5α was exemplified. E. coli DH5α was streaked and cultured on LB solid medium. Then, a typical clone was picked and inoculated into common LB liquid medium, cultured at 37° C. with shaking at 185 rpm until the logarithmic growth phase was reached (OD600 of about 0.5). The bacterial culture was centrifuged at 4000×g for 3 min, the supernatant was discarded, and the thalli were resuspended with fresh LB medium.
# 2. The above-mentioned bacterial suspension was diluted and inoculated into a 96-well plate with the total volume of 100 μL per well and a bacterial count of 5×10^5 CFU/mL.
# 3. The recombinant protein hF VII-EGF1 was added to the above-mentioned wells with the final protein concentration in the well of the highest protein concentration being 50 μg/mL. Basing on this final concentration, a two-fold serial dilution was performed till a protein concentration gradient consisting of 50, 25, and 12.5 μg/mL was set up. Three parallel wells were set up for each concentration in the gradient.
# as §4, with “plate was” for “plates were”, “rpm. Samples were taken every 30 min, the absorbance values were determined at 600 nm wavelength under a ultra violet spectrophotometer, and an inhibition curve was plotted.” for “rpm.”
# According to the experimental procedures in Example 14, the minimal inhibitory concentrations (MIC, μg/mL) of the other human-originated EGF domain proteins (PRT2 to PRT1498 in Table 1) for E. coli DH5α were determined.
# [8] = tested on: Citrobacter diversus; test: MIC against Gram-negative bacteria: Citrobacter diversus; settings: 5×10^5 CFU/mL; for MIC C. diversus: two-fold serial dilution; for MIC against C. diversus: Citrobacter diversus
# Method: as §1, §2, §3, §4
# [9] = tested on: Proteus mirabilis; test: MIC against Gram-negative bacteria: Proteus mirabilis; settings: 5×10^5 CFU/mL; for MIC P. mirabilis: two-fold serial dilution; for MIC against P. mirabilis: Proteus mirabilis
# Method: as §1, §2, §3, §4
# [10] = tested on: E. coli BL21; test: MIC against Gram-negative bacteria: E. coli BL21; settings: 5×10^5 CFU/mL; for MIC E. coli BL21: two-fold serial dilution
# Method: as §1, §2, §3, §4
# [11] = tested on: Aeromonas hydrophila; test: MIC against Gram-negative bacteria: Aeromonas hydrophila; settings: 5×10^5 CFU/mL; for MIC A. hydrophila: two-fold serial dilution; for MIC against A. hydrophila: Aeromonas hydrophila
# Method: as §1, §2, §3, §4
Substance,MIC P. vulgaris ([1]; 10 h cultivation at 37° C.) [µg/mL],MIC M. catarrhalis ([2]; 10 h cultivation at 37° C.) [µg/mL],MIC E. cloacae ([3]; 10 h cultivation at 37° C.) [µg/mL],MIC P. aeruginosa ([4]; 10 h cultivation at 37° C.) [µg/mL],MIC K. pneumonia ([5]; 10 h cultivation at 37° C.) [µg/mL],MIC S. marcescens ([6]; 10 h cultivation at 37° C.) [µg/mL],MIC [7] [µg/mL],MIC C. diversus ([8]; 10 h cultivation at 37° C.) [µg/mL],MIC P. mirabilis ([9]; 10 h cultivation at 37° C.) [µg/mL],MIC E. coli BL21 ([10]; 10 h cultivation at 37° C.) [µg/mL],"MIC against P. vulgaris ([1]; 96-well plate, 37° C., 10 h) [µg/mL]","MIC against M. catarrhalis ([2]; 96-well plate, 37° C., 10 h) [µg/mL]","MIC against E. cloacae ([3]; 96-well plate, 37° C., 10 h) [µg/mL]","MIC against P. aeruginosa ([4]; 96-well plate, 37° C., 10 h) [µg/mL]","MIC against K. pneumonia ([5]; 96-well plate, 37° C., 10 h) [µg/mL]","MIC against S. marcescens ([6]; 96-well plate, 37° C., 10 h) [µg/mL]","MIC against C. diversus ([8]; 96-well plate, 37° C., 10 h) [µg/mL]","MIC against P. mirabilis ([9]; 96-well plate, 37° C., 10 h) [µg/mL]","MIC against E. coli BL21 ([10]; 96-well plate, 37° C., 10 h) [µg/mL]","MIC against A. hydrophila ([11]; 96-well plate, 37° C., 10 h) [µg/mL]",other results
PRT1124 (AECFPACNPQNGFCEDDNVCRCQPGWQGPLCD; listed as Homo sapiens),50,50,25,25,12.5,12.5,25,12.5,12.5,50,,,,,,,,,,,MIC A. hydrophila ([11]; 10 h cultivation at 37° C.): 50 µg/mL
PRT1164 (DVNECLSNPCPSTAMCNNTQGSFICKCPVGYQLEKGICN; listed as Homo sapiens),25,25,12.5,12.5,12.5,12.5,12.5,12.5,50,12.5,,,,,,,,,,,MIC A. hydrophila ([11]; 10 h cultivation at 37° C.): 25 µg/mL
PRT1220 (DIDECLPSPCHSGGTCHNLVGGFSCSCPDGFTGRACE; listed as Homo sapiens),,,,,,,12.5,,,,50,25,25,50,12.5,25,50,12.5,25,25,
PRT1245 (QGDECGIAVCEGNSTCSENEVCVRPGECRCRHGYFGANCD; listed as Homo sapiens),,,,,,,50,,,,25,25,50,50,12.5,12.5,12.5,50,12.5,25,
PRT1255 (DIDECENDYYNGGCVHECINIPGNYRCTCFDGFMLAHDGHNCL; listed as Homo sapiens),,,,,,,12.5,,,,25,25,25,25,12.5,12.5,12.5,50,50,50,
PRT1349 (DVDECAVGSDCSEHASCLNVDGSYICSCVPPYTGDGKNCA; listed as Homo sapiens),,,,,,,50,,,,,,,,,,,,,,MIC against P. vulgaris ([1]; 10 h cultivation at 37° C.): 12.5 µg/mL; MIC against M. catarrhalis ([2]; 10 h cultivation at 37° C.): 12.5 µg/mL; MIC against E. cloacae ([3]; 10 h cultivation at 37° C.): 50 µg/mL; MIC against P. aeruginosa ([4]; 10 h cultivation at 37° C.): 12.5 µg/mL; MIC against K. pneumonia ([5]; 10 h cultivation at 37° C.): 25 µg/mL; MIC against S. marcescens ([6]; 10 h cultivation at 37° C.): 25 µg/mL; MIC against C. diversus ([8]; 10 h cultivation at 37° C.): 50 µg/mL; MIC against P. mirabilis ([9]; 10 h cultivation at 37° C.): 50 µg/mL; MIC against E. coli BL21 ([10]; 10 h cultivation at 37° C.): 25 µg/mL; MIC against A. hydrophila ([11]; 10 h cultivation at 37° C.): 12.5 µg/mL
